Measured values from the RNAGym collection of RNA variant scans (doi:10.1093/nar/gkz1192).
Read counts are not given, so values of variants with three or more changes are uncertain.

B1: CPEB3 Ribozyme (parent)
chain: UAACAGGGGGCCACAGCAGAAGCGUUCACGUCGCAGCCCCUGUCAGAUUCUGGUGAAUCUGCGAAUUCUGCUGUAUAUCUC

Variants of: B1
Assay: self-cleavage, relative activity (ratio to wild type); higher = more cleavage; in vitro, sequencing
Summary of the method: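 After error-prone PCR and barcoding, CPEB3 ribozyme mutant libraries were transcribed with T7 RNA polymerase at 37°C for 5 hours, then given 15 min with DNase I before an EDTA stop, and they cleaved during both steps. Reverse transcription with template switching preceded Illumina sequencing. Relative activity divides a variant's cleaved/total read fraction by the unmutated ribozyme's. At least 5 reads were required per variant, and three batches were averaged.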
Variant G70A A77U C79U has a self-cleavage of 0.71. With U72A A75G U78C the self-cleavage was 1.04. In the case of A77U U78C C79G U80C, the self-cleavage is reported as 1.18. Work on U74C A75U U80C yielded a self-cleavage of 1.14. In the case of G70A U72C U78C, the self-cleavage is reported as 0.39. G73A U76C U78C gave a self-cleavage of 1.3. In the case of G70A U76C A77G, the self-cleavage is reported as 0.42. For G70C U72C A75U, the self-cleavage was 0.32. For U78C C79G U80C, the self-cleavage was 1.25. U69C U74A U80C gave a self-cleavage of 0.88. U72C A77U U78C showed a self-cleavage of 1.2. With U69C U72C U78C the self-cleavage was 0.39. Variant G73U A77U U78C has a self-cleavage of 1.27. For G70A U72C U74C, the self-cleavage was 0.36.
